# About 340 (0.77%) of roughly 44,000 compounds were called active. About 5% were inconclusive and are not listed. Calls come from the whole dose curve; as a rule, active = well fitted inhibition curve with a large enough effect; inconclusive = small, poorly fitted or top-dose-only effect; inactive = flat fitted curve, though single readings scatter. Some of the results follow.
# Experiment: Acumen qHTS Assay for Inhibitors of the mTORC1 Signaling Pathway in MEF (Tsc2-/-, p53-/-) Cells: Sytravon;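 note: plate controls were DMSO for no effect and rapamycin for full effect; nearly all actives have a fitted effect of over 50% in size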
# Conditions: phospho-rpS6 immunofluorescence/PI, 24 h; series mostly up to 38.3 µM; activity change, negative = inhibition: at the top concentration
# Summary of the method: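 Tsc2-/-, p53-/- mouse embryonic fibroblasts (empty-vector line) exposed to compound 24 hrs at 37 C, fixed, immunostained for phospho-rpS6 and counterstained with propidium iodide. Acumen laser scanning gives % positive cells from Alexa 488/PI ratio, thresholded using 7.5 nM rapamycin; PI count gives viability.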
row,SMILES,"activity change, negative = inhibition"
1,CCn1c(C)c(C)c2cc(C(=O)NCc3ccc(OC(C)C)cc3)ccc21,inactive: 7.07%
2,COc1ccc(NC(=O)Cn2c(=O)n(Cc3ccc4c(c3)OCO4)c(=O)c3ccc(C(=O)NC4CCCCC4)cc32)cc1,inactive: -11.5%
3,COc1ccc(-c2noc(N3CCC(C(=O)N4CCN(c5ccccc5F)CC4)CC3)n2)cc1,inactive: -8.97%
4,CCOCCCNc1nc2ccccc2n2c(CC)nnc12,inactive: 0.828%
5,COc1ccccc1NC(=O)CSc1nc(-c2ccc(C)cc2)nc2c1Cc1c(CO)cnc(C)c1O2,inactive: -2.65%
6,Cc1nn2c(=O)cc(COC(=O)c3ccc(NC(=O)c4cccc(Br)c4)cc3)nc2s1,inactive: 0%
7,COc1ccc(-c2cn3nc(N4CCCC(C(=O)Nc5ccccc5OC)C4)sc3n2)cc1 (stereo not given),inactive: -0.842%
8,COC(=O)c1ccccc1NC(=O)Cn1c(=O)n(CCC(=O)NCc2ccccc2OC)c(=O)c2ccccc21,inactive: -0.0981%
9,Cc1ccc(Cl)cc1NC(=O)CN1C(=O)CSc2ccc(S(=O)(=O)N3CCCC3)cc21,inactive: -9.17%
10,Cc1cccc(NC(=O)CCN2CCN(c3ccccc3F)CC2)c1,inactive: 5.56%
11,CCOC(=O)c1c(S(=O)(=O)NCC(=O)N2CCN(c3cc(C)ccc3C)CC2)c(C)n(C)c1C,inactive: -7.55%
12,Cc1cccc(N2CCN(c3ccc(C(=O)O)cc3NC(=O)c3cccc(Cl)c3)CC2C)c1 (stereo not given),inactive: 2.75%
13,CCc1ccc(-c2nc(SCC(=O)NCC3CCCO3)c(-c3ccc(C)cc3)[nH]2)cc1 (stereo not given),inactive: 6.8%
14,Cc1cccc(C)c1NC(=O)Cn1c(=O)n(CCCS(=O)(=O)C2CCCCC2)c(=O)c2ccccc21,inactive: -0.843%
15,CCCN(C(=O)Cn1ncc2c1-c1ccccc1OC2)c1cccc(C)c1,inactive: -7%
16,CCOC(=O)C1CCN(c2c(C(=O)c3ccc(OC)cc3)cnc3ccccc23)CC1,inactive: -2.07%
17,O=C(CSc1nccn1C1CCCC1)Nc1cccc(F)c1,inactive: -6.9%
18,CSCC[C@@H](C(=O)Nc1cccc(F)c1)N1Cc2ccccc2C1=O,inactive: -13.3%
19,CCOCCc1nn2c(=O)cc(COC(=O)Cc3ccccc3)nc2s1,inactive: 3.57%
20,CCOC(=O)c1cc2c(=O)n3ccccc3nc2n(Cc2ccco2)c1=NC(=O)c1ccc(C)c(C)c1,inactive: -14.5%
21,CN(c1ccccc1)S(=O)(=O)c1nnc(NC(=O)COc2ccccc2)s1,inactive: 3.46%
22,O=C(Cn1c(=O)oc2cc(S(=O)(=O)N3CCCCCC3)ccc21)Nc1ccc(F)cc1F,inactive: -1.25%
23,O=C(Nc1cc2c(cc1C(=O)c1cccc(Br)c1)OCCO2)c1ccccc1F,inactive: -29.1%
24,Cc1ccc(-n2c(=O)c3ccc(C(=O)NCc4ccco4)cc3n(CC(=O)Nc3ccccc3C(F)(F)F)c2=O)cc1,inactive: -0.793%
25,CN(C(=O)Cn1cnc2onc(-c3ccc(F)cc3)c2c1=O)c1ccccc1Cl,inactive: 2.3%

# — PubChem BioAssay AID493208 (National Center for Advancing Translational Sciences (NCATS), 2011)
